Results from PubChem BioAssay AID1768 (National Center for Advancing Translational Sciences (NCATS), 2009).
The whole screen tested about 270,000 compounds, of which about 620 (0.23%) were called active. The inconclusive results got no clear call from the source; some entries with a clear call stand among them for comparison. Calls come from the whole dose curve; as a rule, active = well fitted inhibition curve with a large enough effect in the polarisation, with a control signal flat (not every such curve was filed as active); inconclusive = small, poorly fitted or top-dose-only effect, or effect the other way, or a change in a side signal; inactive = no such curve, though single readings can be large or run the other way; the % refers to the polarisation. A potency beside an inconclusive call is a rough fit, not a confirmed value. “Side channel” marks fits to a control or component signal instead of the main read-out.

The compounds below were run against Menin (Homo sapiens) (UniProt O00255) (assay: qHTS Assay for Inhibitors Targeting the Menin-MLL Interaction in MLL Related Leukemias: Competition With Texas Red Labeled MLL-derived Mutant Peptide). Details: fluorescence polarization; series mostly up to 61.6 µM.
Potency is the fitted concentration of half-maximal effect; tags give direction and shape of the fitted curve or compound fluorescence and quenching.

Sequence of UniProt O00255 (O00255 whole entry, looked up): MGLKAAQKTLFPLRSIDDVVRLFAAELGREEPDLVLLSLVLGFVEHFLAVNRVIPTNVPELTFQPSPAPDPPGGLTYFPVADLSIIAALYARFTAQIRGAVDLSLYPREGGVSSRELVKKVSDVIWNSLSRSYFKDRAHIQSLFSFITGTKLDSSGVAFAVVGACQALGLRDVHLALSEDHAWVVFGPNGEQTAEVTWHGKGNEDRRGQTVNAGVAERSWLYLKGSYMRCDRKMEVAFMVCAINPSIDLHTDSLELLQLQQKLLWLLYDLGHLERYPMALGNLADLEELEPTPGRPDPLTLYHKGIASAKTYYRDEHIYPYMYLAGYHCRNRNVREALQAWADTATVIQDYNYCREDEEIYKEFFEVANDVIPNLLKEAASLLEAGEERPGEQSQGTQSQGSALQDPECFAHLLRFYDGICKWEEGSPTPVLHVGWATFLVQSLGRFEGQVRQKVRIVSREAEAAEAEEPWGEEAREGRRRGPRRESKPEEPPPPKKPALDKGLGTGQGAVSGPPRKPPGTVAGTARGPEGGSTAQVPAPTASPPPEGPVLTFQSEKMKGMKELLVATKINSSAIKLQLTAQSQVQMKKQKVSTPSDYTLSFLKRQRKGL

Potency, inactive:
NC(=Nc1ccc(N)cc1)C(N)=Nc1ccc(N)cc1
CCSc1nc(-c2ccc(OC)cc2)ccc1C#N
COC(=O)C1=C(C)NC(C)=C(C(=O)OC)C1C(=O)OCCN1C(=O)c2ccccc2C1=O
O=C(c1cc(C(=O)N2CCN(c3ccc(F)cc3)CC2)cc([N+](=O)[O-])c1)N1CCN(c2ccc(F)cc2)CC1
COC(=O)[C@@]1(Cc2ccccc2)[C@H]2c3cc(C(=O)N4CCCC4)n(Cc4ccc(O)c(OC)c4)c3C[C@H]2CN1C(=O)c1ccccc1
CCn1nnc(NC(=O)Cc2ccc(Cl)cc2)n1
COc1ccc(C2CC(c3ccccc3O)=NN2C(=O)c2ccccc2)cc1OC (stereo not drawn)
Cc1noc(C)c1-c1ccc2ncnc(NCc3ccc(-c4ccccc4)cc3)c2c1

Potency, inconclusive:
O=C(NCCc1ccc(Cl)cc1)c1ccc(=O)[nH]c1 8.91 µM [inhibitor, single point]
NS(=O)(=O)c1ccc(NS(=O)(=O)c2cccs2)cc1 3.55 µM [inhibitor, single point]
Cn1ncc(Br)c1C(=O)OCC(=O)Nc1nc(-c2ccccc2)cs1 8.91 µM [quencher, side channel, partial curve]
N#Cc1c(SCC(N)=O)nc2c(c1-c1ccc(O)cc1)CCCC2 39.8 µM [fluorescent, side channel, single point]
COc1ccc2c(c1)CCc1c-2n[nH]c1C(=O)NCCC(C)C 39.8 µM [quencher, side channel, single point]
FC(F)Sc1ccc(NC(=S)NC2CCCCC2)cc1 14.1 µM [quencher, side channel, partial curve]
O=C(Nc1ccccc1)Nc1cc([N+](=O)[O-])ccc1F 22.4 µM [quencher, side channel, single point]
CC(=O)Nc1ccc(-c2csc(Nc3cccc(C)n3)n2)cc1 22.4 µM [quencher, side channel, partial curve]
Cc1ccc(-c2noc(CCC(=O)Nc3cccc(C#N)c3)n2)cc1 28.2 µM [quencher, side channel, partial curve]
COc1ccc(CNC(=O)COC(=O)c2cc(-c3ccc(Cl)s3)nc3ccccc23)cc1 1.41 µM [quencher, side channel, full curve]
O=C(Nc1ccc2c(c1)OCO2)Nc1ccc(F)cc1F 39.8 µM [fluorescent, side channel, single point]
COc1ccc(NC(=O)c2cn(CCC#N)nc2-c2cc3ccccc3o2)cc1 11.2 µM [quencher, side channel, partial curve]
Cc1ccc(NC(=S)c2nc3ccccc3s2)cc1 2.51 µM [inhibitor, full curve]
CC1=NN(c2ccc(N)cc2)C(=O)C1 31.6 µM [quencher, side channel, partial curve]
Cc1ccc(-n2c(SCc3nc4ccccc4c(=O)[nH]3)nnc2-c2ccccc2O)cc1 22.4 µM [fluorescent, side channel, single point]
O=c1[nH]c([N+](=O)[O-])nn1C(c1ccccc1)c1ccccc1 28.2 µM [quencher, side channel, single point]
CC1(C)CC(=O)C(C(c2ccccc2F)C2C(=O)CC(C)(C)CC2=O)C(=O)C1 5.62 µM [inhibitor, single point]
CC(=O)OCC1(C)CN(c2ccccc2)N(C(=O)c2ccc(C(C)(C)C)cc2)C1=O (stereo not drawn) 14.1 µM [fluorescent, side channel, partial curve]
COc1ccc(-c2ccc(/C=N/NC(=O)c3cccnc3)o2)c([N+](=O)[O-])c1 10 µM [quencher, side channel, partial curve]
O=C(C1=C[C@H](C2CCCCC2)C[C@H](OCc2ccc(CO)cc2)O1)N1CCN(Cc2ccc3c(c2)OCO3)CC1 3.55 µM [fluorescent, side channel, full curve]
COc1ccc(-c2ccc(/C=C3/C(=N)N4C(C)=CSC4=NC3=O)o2)c([N+](=O)[O-])c1 28.2 µM [quencher, side channel, single point]
COc1ccc2cc3cc(C(=O)NCCN4CCc5ccccc5C4)oc3nc2c1 25.1 µM [inhibitor, partial curve, poor fit]
CN1/C(=C\C(=O)C[n+]2ccc(C(=O)c3ccccc3)cc2)C(C)(C)c2ccccc21 17.8 µM [inhibitor, partial curve]
CCOc1ccc(C2C(C(=O)OC)=CN(C(C)c3ccccc3)C=C2C(=O)OC)cc1 (stereo not drawn) 2 µM [fluorescent, side channel, partial curve, poor fit]
Cc1ccc(NC(=O)C2C(=O)N(C)c3ccccc32)cc1 (stereo not drawn) 35.5 µM [quencher, side channel, single point]
Cc1cc2cc(CNC(=S)Nc3ccc(OC(F)F)cc3)ccc2[nH]1 14.1 µM [quencher, side channel, single point]
Cc1ccccc1NC(=O)C(=O)c1cn(C)c2ccccc12 20 µM [inhibitor, single point]
Cc1ccc(NC(NC(=O)c2cccs2)C(Cl)(Cl)Cl)cc1C (stereo not drawn) 3.98 µM [quencher, side channel, full curve]
CCCC1=C/C(=C/c2ccc(-c3ccccc3OC)o2)C(=O)O1 35.5 µM [quencher, side channel, single point]
O=C(CCl)Nc1ccccc1Sc1ccccc1 15.8 µM [fluorescent, side channel, partial curve]
